Out of some 310,000 compounds screened, about 14,000 (4.5%) showed an effect of 50% or more. The effect is printed as a negative number. This is one part of the list.
What follows are molecules tested against human ether-à-go-go-related gene (hERG) potassium channel (human, UniProt Q12809) (assay: primary screen, population patch clamp on CHO cells stably expressing hERG).
Chain of human ether-à-go-go-related gene (hERG) potassium channel (Q12809 whole entry, looked up): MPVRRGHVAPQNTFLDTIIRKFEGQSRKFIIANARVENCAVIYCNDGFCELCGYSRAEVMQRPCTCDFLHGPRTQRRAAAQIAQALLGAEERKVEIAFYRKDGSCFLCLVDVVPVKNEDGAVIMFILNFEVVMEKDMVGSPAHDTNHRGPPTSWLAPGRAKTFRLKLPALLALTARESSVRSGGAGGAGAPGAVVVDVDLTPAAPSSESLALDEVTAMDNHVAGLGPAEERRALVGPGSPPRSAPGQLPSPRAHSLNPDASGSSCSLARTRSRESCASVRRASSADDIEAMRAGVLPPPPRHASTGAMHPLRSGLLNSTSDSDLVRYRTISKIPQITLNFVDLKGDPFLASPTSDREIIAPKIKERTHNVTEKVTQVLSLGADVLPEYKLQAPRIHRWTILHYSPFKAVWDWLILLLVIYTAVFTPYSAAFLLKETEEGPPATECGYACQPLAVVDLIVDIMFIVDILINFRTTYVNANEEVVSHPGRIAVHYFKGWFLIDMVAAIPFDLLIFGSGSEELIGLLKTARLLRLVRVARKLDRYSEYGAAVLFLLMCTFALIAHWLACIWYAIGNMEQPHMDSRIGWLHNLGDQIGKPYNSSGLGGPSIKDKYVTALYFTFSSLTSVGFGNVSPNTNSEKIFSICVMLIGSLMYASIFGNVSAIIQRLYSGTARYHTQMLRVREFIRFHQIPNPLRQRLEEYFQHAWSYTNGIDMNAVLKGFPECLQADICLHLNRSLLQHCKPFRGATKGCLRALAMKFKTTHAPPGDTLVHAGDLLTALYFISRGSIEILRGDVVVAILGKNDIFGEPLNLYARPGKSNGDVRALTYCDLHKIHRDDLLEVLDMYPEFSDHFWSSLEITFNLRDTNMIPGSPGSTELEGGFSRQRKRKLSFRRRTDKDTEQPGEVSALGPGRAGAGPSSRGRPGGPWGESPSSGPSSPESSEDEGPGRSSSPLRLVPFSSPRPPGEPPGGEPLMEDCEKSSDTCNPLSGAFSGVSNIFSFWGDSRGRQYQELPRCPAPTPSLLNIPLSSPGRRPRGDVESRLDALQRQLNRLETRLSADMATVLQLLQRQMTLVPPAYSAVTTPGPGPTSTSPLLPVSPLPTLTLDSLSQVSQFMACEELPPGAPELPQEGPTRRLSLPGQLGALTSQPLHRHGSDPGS
In the case of COc1ccc(N2C(=O)CC(NCc3ccc(F)cc3)C2=O)cc1 (stereo not shown), the “hERG current change (%, negative = inhibition) at 10uM” value is reported as 7.01%.
For O=C(NCCCN1CCN(c2ccc(F)cc2)CC1)Nc1ccc([N+](=O)[O-])cc1, the “hERG current change (%, negative = inhibition) at 10uM” value was -73.9%.
For C/C(=N\NC(=O)C1CC1)c1ccc(Cl)c(Cl)c1, the “hERG current change (%, negative = inhibition) at 10uM” value was 0.96%.
For CCNC(=S)NNc1ccccc1, the “hERG current change (%, negative = inhibition) at 10uM” value was -2.53%.
In the case of N=C1C(c2ccccc2)=C(O)CN1c1cccc(O)c1, the “hERG current change (%, negative = inhibition) at 10uM” value is reported as 21.4%.
With O=[N+]([O-])c1cc(C(F)(F)F)ccc1NCCCCNS(=O)(=O)c1ccc2ccccc2c1 the “hERG current change (%, negative = inhibition) at 10uM” value was -11.3%.
With Cc1cc(C)cc(NC(=O)CCN2CCCC2)c1 the “hERG current change (%, negative = inhibition) at 10uM” value was -15.8%.
With Cc1nc2nc(CC(=O)O)[nH]n2c(=O)c1[N+](=O)[O-] the “hERG current change (%, negative = inhibition) at 10uM” value was 12.1%.
In the case of CCC(=NCCc1c(C)[nH]c2ccccc12)C1=C(O)CC(c2ccccc2)CC1=O (stereo not shown), the “hERG current change (%, negative = inhibition) at 10uM” value is reported as 6.02%.
For CCCNS(=O)(=O)c1ccc(OCC(=O)N2CCN(Cc3ccc4c(c3)OCO4)CC2)cc1, the “hERG current change (%, negative = inhibition) at 10uM” value was -32%.
Cn1cc(S(=O)(=O)c2ccccc2)c(=O)c2cc(Cl)ccc21 was tested, and the “hERG current change (%, negative = inhibition) at 10uM” value was 75%.
With O=C(C1CCC1)N1CCc2cc(S(=O)(=O)NCCCN3CCCCC3)ccc21 the “hERG current change (%, negative = inhibition) at 10uM” value was 9.4%.
In the case of O=C1SC(c2ccccc2)=N/C1=C/c1ccco1, the “hERG current change (%, negative = inhibition) at 10uM” value is reported as 1.39%.
For COC(=O)Cc1c(C)c2c(O)cc(C)cc2oc1=O, the “hERG current change (%, negative = inhibition) at 10uM” value was -0.918%.
O=C(OCc1ccc(O)cc1)c1c(-c2ccsc2)oc2ccc(N3CCOCC3)cc12 was tested, and the “hERG current change (%, negative = inhibition) at 10uM” value was 2.97%.
With CN(C)c1nc(N2CCN(c3ccccc3)CC2)c(C#N)c(=O)o1 the “hERG current change (%, negative = inhibition) at 10uM” value was -16.9%.
With CC(=O)NNC(=S)NCCc1ccccc1 the “hERG current change (%, negative = inhibition) at 10uM” value was 9.42%.
For CCOc1ccc(C(=O)Nc2cccc(C(C)=O)c2)cc1[N+](=O)[O-], the “hERG current change (%, negative = inhibition) at 10uM” value was -26.2%.
COc1ccc(C)cc1N(CC(=O)Nc1ccc(S(=O)(=O)N2CCOCC2)cc1)S(C)(=O)=O was tested, and the “hERG current change (%, negative = inhibition) at 10uM” value was -9.84%.
COc1ccc(OCC(=O)NC2CCCN(Cc3ccc(Cl)cc3)C2)cc1 (stereo not shown) was tested, and the “hERG current change (%, negative = inhibition) at 10uM” value was -29.4%.
In the case of O=C(NC(CO)c1ccccc1)c1ccco1 (stereo not shown), the “hERG current change (%, negative = inhibition) at 10uM” value is reported as 12.4%.
With c1ccc(CCCc2nc(-c3cccnc3)no2)cc1 the “hERG current change (%, negative = inhibition) at 10uM” value was 19.2%.
With COc1cc(CCCN2C(=O)C(=O)NC[C@@H]2c2ccccc2)cc(OC)c1OC the “hERG current change (%, negative = inhibition) at 10uM” value was 3.38%.
In the case of CCOC(=O)c1ccc(NC(=O)c2c(N)n(Cc3ccccc3)c(=O)[nH]c2=O)cc1, the “hERG current change (%, negative = inhibition) at 10uM” value is reported as 38.7%.
COc1ccccc1CNC(=O)COC(=O)c1cc(C)oc1C was tested, and the “hERG current change (%, negative = inhibition) at 10uM” value was 0.456%.
In the case of COc1ccc(NC2=NC(=S)N(c3ccccc3C)C23CCCCC3)cc1, the “hERG current change (%, negative = inhibition) at 10uM” value is reported as 10.6%.
For CCCCNC(=S)Nc1cc([N+](=O)[O-])ccc1C, the “hERG current change (%, negative = inhibition) at 10uM” value was 11.6%.
Cc1ccc(NC(=O)C2CCC(N3C(=O)C4CCCCC4C3=O)CC2)cc1 (stereo not shown) was tested, and the “hERG current change (%, negative = inhibition) at 10uM” value was 0.246%.
In the case of Cc1ccccc1-n1c(Cc2cccs2)n[nH]c1=S, the “hERG current change (%, negative = inhibition) at 10uM” value is reported as 14.3%.
O=C(NCC1CCCO1)c1csc2c1CCCC2 (stereo not shown) was tested, and the “hERG current change (%, negative = inhibition) at 10uM” value was 5.69%.
For CC(=O)Nc1ccc(S(=O)(=O)N(C)Cc2cnn(C)c2)cc1, the “hERG current change (%, negative = inhibition) at 10uM” value was 8%.
With O=[N+]([O-])c1nn(-c2ccc3c(c2)OCCO3)n(O)c1=NC1CCCCC1 the “hERG current change (%, negative = inhibition) at 10uM” value was -8.03%.
O=C1NC(=S)S/C1=C/c1ccc(N2CCOCC2)o1 was tested, and the “hERG current change (%, negative = inhibition) at 10uM” value was 9.27%.
For O=C(OCCCc1cc2ccccc2c(=O)o1)c1ccc2c(c1)OCO2, the “hERG current change (%, negative = inhibition) at 10uM” value was -12.9%.
In the case of O=C(O)c1nnn(-c2ccc(F)cc2F)c1-c1ccccc1, the “hERG current change (%, negative = inhibition) at 10uM” value is reported as 11.9%.
In the case of CCOC(=O)N1CCC(NC(=O)c2cc3cc4cc(OC)ccc4nc3o2)CC1, the “hERG current change (%, negative = inhibition) at 10uM” value is reported as -16.2%.
For N#CC1=C(N)OC2=C(C(=O)CCC2)C1c1cc2c(cc1Cl)OCO2 (stereo not shown), the “hERG current change (%, negative = inhibition) at 10uM” value was -1.45%.
In the case of Cn1c(CSc2nc3ccccc3s2)nc2ccccc21, the “hERG current change (%, negative = inhibition) at 10uM” value is reported as -19.6%.
For O=C(c1cc(F)ccc1F)C1CCCN(C(=O)c2ccco2)C1 (stereo not shown), the “hERG current change (%, negative = inhibition) at 10uM” value was -2.45%.
In the case of CCOc1ccc(NC(=O)CSc2nnc(Cc3csc(C)n3)o2)cc1, the “hERG current change (%, negative = inhibition) at 10uM” value is reported as 6.77%.
In the case of CCOC(=O)c1ccc(NC(=O)CSc2nc(=O)n(CCN3CCOCC3)c3c2CCC3)cc1, the “hERG current change (%, negative = inhibition) at 10uM” value is reported as -32%.
For Cc1cc(C)n(-c2nc(-c3ccc(Cl)c(Cl)c3)cs2)n1, the “hERG current change (%, negative = inhibition) at 10uM” value was 4.19%.
In the case of COc1ccc(Nc2ncccc2C(=O)O)cc1, the “hERG current change (%, negative = inhibition) at 10uM” value is reported as 1.98%.
In the case of Cc1ccc(-c2nc(SCC(=O)NCC3CCCO3)c(-c3ccc(Cl)cc3)[nH]2)cc1 (stereo not shown), the “hERG current change (%, negative = inhibition) at 10uM” value is reported as 8.85%.
For O=C(CCNC(=O)c1ccccc1Cl)NCC(c1ccc(F)cc1)N1CCOCC1 (stereo not shown), the “hERG current change (%, negative = inhibition) at 10uM” value was 8.07%.
For Cc1nnc2sc(-c3ccccn3)nn12, the “hERG current change (%, negative = inhibition) at 10uM” value was 18.2%.
With CC(C)(C)c1cnnn1-c1ccc(C(=O)CCl)cc1 the “hERG current change (%, negative = inhibition) at 10uM” value was -21.6%.
With COc1ccc(CCNC(=O)c2c([S-])n(-c3ccc(C)cc3)c3cccc[n+]23)cc1 the “hERG current change (%, negative = inhibition) at 10uM” value was -14.1%.
In the case of O=C(NC1(C(F)(F)F)Oc2ccccc2O1)N1CCCC1, the “hERG current change (%, negative = inhibition) at 10uM” value is reported as -8.28%.
In the case of COc1ccc(S(=O)(=O)N2CCC(C(N)=O)CC2)cc1, the “hERG current change (%, negative = inhibition) at 10uM” value is reported as 6.5%.
For C=CCn1c(COc2ccc(CC)cc2)nnc1SCC(=O)NC1CCS(=O)(=O)C1 (stereo not shown), the “hERG current change (%, negative = inhibition) at 10uM” value was -14.1%.
O=C(CC1OC(=O)c2ccccc21)NCC1COc2ccccc2O1 (stereo not shown) was tested, and the “hERG current change (%, negative = inhibition) at 10uM” value was -32.7%.
With COc1ccc(NC(=S)N(CCO)Cc2cc3c(C)cc(C)cc3[nH]c2=O)cc1 the “hERG current change (%, negative = inhibition) at 10uM” value was -48.8%.
With c1ccc(OCCCc2nc(-c3cccnc3)no2)cc1 the “hERG current change (%, negative = inhibition) at 10uM” value was -14.2%.
COCc1cc(C2C(C(=O)c3ccco3)=C(O)C(=O)N2CCOCCO)ccc1O (stereo not shown) was tested, and the “hERG current change (%, negative = inhibition) at 10uM” value was 10.6%.
CCn1ncc(C2=NOC(C(=O)Nc3cccc(C(C)=O)c3)C2)c1C (stereo not shown) was tested, and the “hERG current change (%, negative = inhibition) at 10uM” value was -12.6%.
In the case of Cc1ccc(SCC(=O)Nc2cc(C)on2)cc1, the “hERG current change (%, negative = inhibition) at 10uM” value is reported as 7.34%.
In the case of COc1ccc(C(=O)NCC(c2ccco2)N(C)C)cc1S(=O)(=O)NCc1ccc(Cl)cc1 (stereo not shown), the “hERG current change (%, negative = inhibition) at 10uM” value is reported as -32.6%.

From publication PMC4336329 (PLoS ONE, 2015)
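Note: peak tail current of the secondary pulse compared with the same well before compound.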
